In PubChem BioAssay AID463173 (ICCB-Longwood Screening Facility, Harvard Medical School, 2010):
The whole screen tested about 52,000 compounds, of which about 1,700 (3.3%) were called active. Cut-off read from the data, not from the text of the source: active = survival mostly below about 52% (no sharp cut-off); inactive = mostly above about 56%. This is one part of the list.

Test system: Wild type
Assay: S. aureus survival, RN4220 and DeltatarO strains – OD600, teichoic acid synthesis inhibitors, primary screen (AID 463173)
Conditions: S. aureus RN4220 wild type/DeltatarO growth, OD600, 18 h, active compounds read low, screened at 18.75 µg/mL (by protocol)

| Structure (SMILES) | survival |
| --- | --- |
| CCOC(=O)c1ccc(N2C(=O)c3n[nH]c(-c4ccco4)c3C2c2cccc(O)c2)cc1 (stereo not given) | inactive: 16% |
| CCOc1ccc(NC(=O)N2CCN3CCCCC3C2)cc1 (stereo not given) | inactive: 80% |
| COCCNC(=O)CN1C(=O)c2cccnc2Oc2ccc(Cl)cc21 | inactive: 80% |
| Cc1ccc(S(=O)(=O)N(CCc2ccccc2)CC(=O)Nc2ccc(Br)cc2)cc1 | inactive: 95% |
| CCc1cccc(CC)c1NC(=O)CCS(=O)(=O)c1ccc2c(c1)CCN2C(C)=O | inactive: 93% |
| O=[N+]([O-])c1cc(-c2nc(-c3ccccc3)no2)ccc1N1CCOCC1 | inactive: 85% |
| COc1ccc(-c2nc(CCNC(=O)c3ccc(Br)o3)cs2)cc1 | inactive: 124% |
| CCOc1ccccc1NC(=O)C1=C(C)Nc2ncnn2C1c1ccc(C)o1 (stereo not given) | inactive: 79% |
| CCc1ccccc1NC(=O)Cn1c(SCc2ccc(F)cc2)nc2ccncc21 | inactive: 48% |
| Cc1cccc(NC(=O)c2oc3ccccc3c2NC(=O)Cc2coc3ccc(C(C)C)cc23)c1 | inactive: 95% |
| CC1(C)CC(=O)C2=C(C1)NCN(Cc1ccccc1)C2 | inactive: 108% |
| COc1ccc(-c2nc(CNS(=O)(=O)c3cccc(F)c3)cs2)cc1 | inactive: 81% |
| O=C(CCCn1c(=O)c2cccn2c2ccccc21)NCc1ccccc1Br | inactive: 55% |
| O=C(NC1CCCCC1)C(c1ccc(F)cc1)N(Cc1ccco1)C(=O)c1ccccn1 (stereo not given) | inactive: 97% |
| CC1CCN(C(=O)C2COc3ccccc3C2)CC1 (stereo not given) | inactive: 65% |
| Cc1ccc(Nc2sc(C(=O)c3ccccc3)c(N)c2C(N)=O)cc1 | inactive: 130% |
| CNC(=O)c1cnc2sc(N3CCCCCC3)nn2c1=O | inactive: 115% |
| CCOc1ccc(N(CC)C(=O)CCc2nc(-c3ccccc3F)no2)cc1 | inactive: 39% |
| COc1ccc(C(=O)Nc2nc3ccccc3n2CCOc2ccc(Cl)cc2)cc1 | active: 4% |
| Cc1cccn2c(=O)cc(CSc3nnc(NC(=O)c4ccc(F)cc4)s3)nc12 | inactive: 84% |
| O=C(NCCc1ccccc1)c1ccc(Cn2c(SCc3ccccc3)nc3cccnc32)cc1 | inactive: 121% |
| CCC(Sc1nnc(-c2ccc(OC)c(OC)c2)c(-c2ccc(OC)c(OC)c2)n1)C(=O)NC1CCCC1 (stereo not given) | inactive: 128% |
| CCCOc1ccc(Oc2nc(NCC(C)C)nc(N(C)C)n2)nn1 | inactive: 94% |
| CCc1ccc(NC(=O)C(Cc2ccccc2)NS(=O)(=O)c2ccc3c(c2)c(=O)n(C)c(=O)n3C)cc1 (stereo not given) | inactive: 61% |
| Oc1ccc(Br)cc1C=Nc1cccc(-c2nc3ccccc3o2)c1 | inactive: 111% |
